Source: patent publication US20070293512A1, “Condensed Pyrimidine Deriviative and Xanthine Oxidase Inhibitor” (priority 2004, published 2007)
Structures can show the parent of a compound that is named as a salt. At least one read-out could not be matched to a standard name with certainty.

System: in-plasma uric acid value
Assay: In vivo test: in-plasma uric acid value-inhibition after single oral administration to mouse
Conditions: ICR mouse, blood one hour after administration; for In Vivo (%) TMX-67 (0.3 mg/kg): activity value relative to TMX-67 (0.3 mg/kg), single oral 0.3 mg/kg; for In Vivo (%) allopurinol (3 mg/kg): activity value relative to allopurinol (3 mg/kg), single oral 3 mg/kg
Procedure: The xanthine oxidase inhibiting action was. further confirmed in vivo tests by measuring the uric acid concentration in a plasma obtained from mouse into which the compound of the invention had been orally administered. See Example 51, Tables 11 and 12.
Pharmacological Experiment 2 (In Vivo Test)
The test compound suspended in 1% methylcellulose solution in an amount of 0.3 mg/kg or 3 mg/kg was administered to unfasted ICR mouse (7 W) by forced single oral administration. The blood was collected from main artery from the mouse under etherization after one hour from the administration. The plasma was separated from the collected blood in the conventional manner. The plasma was then subjected to measurement of uric acid value by the enzyme method by means of an automatic analytical apparatus (7060E), to obtain an in-plasma uric acid value-inhibition ratio in the test sample-administered group as compared with a ratio.obtained in the normal group.
Based on the obtained in-plasma uric acid inhibition ratio, activity values (%) relative to activity values obtained in the simultaneously conducted tests using TMX-67 (0.3 mg/kg) or allopurinol (3 mg/kg).

Compound	In Vivo (%) TMX-67 (0.3 mg/kg)	In Vivo (%) allopurinol (3 mg/kg)	In Vivo (%) TMX-67 (0.3 mg/kg) (potassium salt)	In Vivo (%) allopurinol (3 mg/kg) (potassium salt)
O=[N+]([O-])c1cc(-c2nc3c(O)ncnc3s2)ccc1Sc1ccc(Cl)cc1 [Example 2, 2-[4-(4-Chlorophenylthio)-3-nitrophenyl]-4-hydroxythiazolo[5,4-d]pyrimidine]	27%	90%	–	–
O=[N+]([O-])c1cc(-c2nc3c(O)ncnc3s2)ccc1Sc1ccc(Cl)cc1 [Example 3, 2-[4-(4-Chlorophenylthio)-3-nitrophenyl]-4-hydroxythiazolo[5,4-d]pyrimidine potassium salt]	–	–	80%	95%
O=[N+]([O-])c1cc(-c2nc3c(O)ncnc3s2)ccc1Sc1ccccc1 [Example 4, 4-Hydroxy-2-(3-nitro-4-phenylthiophenyl)thiazolo[5,4-d]pyrimidine]	82%	87%	–	–
O=[N+]([O-])c1cc(-c2nc3c(O)ncnc3s2)ccc1Oc1ccc(Cl)cc1 [Example 5, 2-[4-(4-Chlorophenoxy)-3-nitrophenyl]-4-hydroxythiazolo[5,4-d]pyrimidine]	136%	136%	–	–
O=[N+]([O-])c1cc(-c2nc3c(O)ncnc3o2)ccc1Sc1ccc(Cl)cc1 [Example 6, 2-[4-(4-Chlorophenylthio)-3-nitrophenyl]-4-hydroxyoxazolo[5,4-d]pyrimidine]	15%	–	–	–
O=[N+]([O-])c1cc(-c2nc3c(O)ncnc3s2)ccc1Oc1ccccc1 [Example 7, 4-Hydroxy-2-(3-nitro-4-phenoxyphenyl)-thiazolo[5,4-d]pyrimidine]	120%	117%	–	–
N#Cc1cc(-c2nc3c(O)ncnc3s2)ccc1Sc1ccc(Cl)cc1 [Example 9, 2-[4-(4-Chlorophenylthio)-3-cyanophenyl]-4-hydroxythiazolo[5,4-d]pyrimidine]	54%	78%	–	–
O=[N+]([O-])c1cc(-c2nc3c(O)ncnc3s2)ccc1Oc1ccc(Cl)c2ccccc12 [Example 11, 2-[4-(4-Chloro-1-naphthoxy)-3-nitrophenyl]-4-hydroxythiazolo[5,4-d]pyrimidine]	–	51%	–	–
O=[N+]([O-])c1cc(-c2nc3c(O)ncnc3s2)ccc1Oc1ccc(F)cc1 [Example 12, 2-[4-(4-Fluorophenoxy)-3-nitrophenyl]-4-hydroxythiazolo[5,4-d]pyrimidine]	113%	119%	–	–
COc1ccc(Oc2ccc(-c3nc4c(O)ncnc4s3)cc2[N+](=O)[O-])cc1 [Example 14, 2-[4-(4-Methoxyphenoxy)-3-nitrophenyl]-4-hydroxythiazolo[5,4-d]pyrimidine]	19%	81%	–	–
O=[N+]([O-])c1cc(-c2nc3c(O)ncnc3s2)ccc1Oc1ccc(C(F)(F)F)cc1 [Example 16, 4-Hydroxy-2-[3-nitro-4-[4-(trifluoromethyl)-phenoxy]phenyl]thiazolo[5,4-d]pyrimidine]	64%	104%	–	–
O=[N+]([O-])c1cc(-c2nc3c(O)ncnc3s2)ccc1Oc1cccc(Cl)c1 [Example 17, 2-[4-(3-Chlorophenoxy)-3-nitrophenyl]-4-hydroxythiazolo[5,4-d]pyrimidine]	44%	102%	–	–
O=[N+]([O-])c1cc(-c2nc3c(O)ncnc3s2)ccc1Oc1ccccc1Cl [Example 18, 2-[4-(2-Chlorophenoxy)-3-nitrophenyl]-4-hydroxythiazolo[5,4-d]pyrimidine]	105%	113%	–	–
O=[N+]([O-])c1cc(-c2nc3c(O)ncnc3s2)ccc1Oc1cccc(F)c1 [Example 20, 2-[4-(3-Fluorophenoxy)-3-nitrophenyl]-4-hydroxythiazolo[5,4-d]pyrimidine]	117%	114%	–	–
O=[N+]([O-])c1cc(-c2nc3c(O)ncnc3s2)ccc1Oc1ccccc1F [Example 21, 2-[4-(2-Fluorophenoxy)-3-nitrophenyl]-4-hydroxythiazolo[5,4-d]pyrimidine]	109%	99%	–	–
N#Cc1cc(-c2nc3c(O)ncnc3s2)ccc1Oc1ccc(Cl)cc1 [Example 23, 2-[4-(4-Chlorophenoxy)-3-cyanophenyl]-4-hydroxythiazolo[5,4-d]pyrimidine]	102%	115%	–	–
COC(=O)c1ccc(Oc2ccc(-c3nc4c(O)ncnc4s3)cc2[N+](=O)[O-])cc1 [Example 25, 4-Hydroxy-2-[4-(4-methoxycarbonylphenoxy)-3-nitrophenyl]thiazolo[5,4-d]pyrimidine]	72%	86%	–	–
O=C(O)c1ccc(Oc2ccc(-c3nc4c(O)ncnc4s3)cc2[N+](=O)[O-])cc1 [Example 26, 2-[4-(4-Carboxyphenoxy)-3-nitrophenyl]-4-hydroxythiazolo[5,4-d]pyrimidine]	–	61%	–	–
O=[N+]([O-])c1cc(-c2nc3c(O)ncnc3s2)ccc1Oc1ccc(Oc2ccccc2)cc1 [Example 28, 2-[3-Nitro-4-(4-phenoxyphenoxy)phenyl]-4-hydroxythiazolo[5,4-d]pyrimidine]	83%	113%	–	–
O=[N+]([O-])c1cc(-c2nc3c(O)ncnc3s2)ccc1Nc1ccccc1 [Example 29, 2-(3-Nitro-4-phenylaminophenyl)-4-hydroxy-thiazolo[5,4-d]pyrimidine]	–	14%	–	–
CC(C)c1ccc(Oc2ccc(-c3nc4c(O)ncnc4s3)cc2[N+](=O)[O-])cc1 [Example 30, 4-Hydroxy-2-[4-(4-isopropylphenoxy)-3-nitro-phenyl]thiazolo[5,4-d]pyrimidine]	–	94%	–	–
O=[N+]([O-])c1cc(-c2nc3c(O)ncnc3s2)ccc1Oc1ccc(-c2ccccc2)cc1 [Example 31, 4-Hydroxy-2-[3-nitro-4-(4-phenylphenoxy)-phenyl]thiazolo[5,4-d]pyrimidine]	35%	107%	–	–
O=[N+]([O-])c1cc(-c2nc3c(O)ncnc3s2)ccc1Oc1cccnc1 [Example 32, 4-Hydroxy-2-[3-nitro-4-(3-pyridyloxy)-phenyl]thiazolo[5,4-d]pyrimidine]	38%	81%	–	–
O=[N+]([O-])c1cc(-c2nc3c(O)ncnc3o2)ccc1Oc1ccc(F)cc1 [Example 39, 2-[4-(4-Fluorophenoxy)-3-nitrophenyl]-4-hydroxyoxazolo[5,4-d]pyrimidine potassium salt]	33%	–	–	–
